Assay results: the supplement of paper PMC10126150
Sequences with one replicate were seen in a single cluster, so their values are uncertain.

The sequences below were run on ATP (assay: switch fluorescence ratio, 500 uM ATP over buffer (Cy3 cluster intensity, sum of 5 cycles each) (fold (ratio)); higher = stronger signal-on switching upon ATP binding; sequences stand for … in TCGTCGGCAGCGTCAGATGTGTATAAGAGACAGTTTTTTTTTTTTTTTTTTTTTTTTT…TC). Conditions: aptamer strand: ATP DNA aptamer (quencher-CACCTGGGGGAGTATTGCGGAGGAAGG + anchor), 100 nM annealed; ATP concentration: 500 uM; one replicate.
Method in brief: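 For every switch-domain sequence, the fluorescence ratio is the mean of per-cluster values, each being summed target-cycle Cy3 intensity over summed buffer-cycle Cy3 intensity. Clusters outside 100-1000 RFU were excluded. On a modified Illumina MiSeq flow-cell, the Cy3-labelled switching-strand clusters were annealed to 100 nM quencher-labelled ATP aptamer, imaged in selection buffer and then after 15 min with 500 uM ATP at 22 °C. Five such cycles were run, with NaOH stripping and re-annealing between them.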
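Further: ATP exposure 15 min at 22 °C before imaging.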

Row | Sequence | switch fluorescence ratio
1 | GATCAAGAAC | 1.02
2 | GATCAATGCC | 1
3 | GATCAATGT | 0.965
4 | GATCAGTATG | 1
5 | GATCATCTAC | 1.05
6 | GATCCAGAC | 1.04
7 | GATCCAGCGC | 1
8 | GATCCGAGCG | 1.09
9 | GATCGAACAA | 0.992
10 | GATCGATAGT | 1.01
11 | GATCGCGCCT | 1.04
12 | GATCGCGGGT | 1.03
13 | GATCGCTATT | 1.16
14 | GATCGGCGAT | 0.961
15 | GATCGGGGAT | 1
16 | GATCGGGTCG | 1.03
17 | GATCGGTCAC | 1.03
18 | GATCGTAGAC | 1.03
19 | GATCGTGTGC | 0.94
20 | GATCTAAACT | 0.992
21 | GATCTAATCG | 1.01
22 | GATCTCATGG | 0.943
23 | GATCTCGATC | 1.04
24 | GATCTGCGT | 0.988
25 | GATCTGGCTC | 0.964

Row | Sequence | switch fluorescence ratio
26 | GATCTGGTAG | 0.978
27 | GATCTTCAAA | 1.02
28 | GATCTTCCAA | 1.01
29 | GATCTTGACT | 1.01
30 | GATCTTTATT | 0.997
31 | GATGAAATCT | 1.05
32 | GATGAATGGT | 0.984
33 | GATGAATTTC | 1.03
34 | GATGACGAGA | 1.04
35 | GATGACGGGA | 0.984
36 | GATGAGCATT | 1
37 | GATGAGGACG | 1.04
38 | GATGAGTGGG | 0.969
39 | GATGATAACA | 0.99
40 | GATGATGGAT | 1
41 | GATGCACATG | 1.07
42 | GATGCAGCCG | 1.01
43 | GATGCATGCC | 1.04
44 | GATGCCAAGT | 1.01
45 | GATGCCATGG | 0.98
46 | GATGCCCTCG | 1
47 | GATGCCGAGA | 0.99
48 | GATGCGCAAG | 1.1
49 | GATGCGCAC | 1.05
50 | GATGCGGACC | 1.09

Row | Sequence | switch fluorescence ratio
51 | GATGCGTCGT | 0.998
52 | GATGCTATA | 1.02
53 | GATGCTTAGC | 1.01
54 | GATGCTTCAG | 0.943
55 | GATGGAAAC | 1.08
56 | GATGGAAAGC | 1.1
57 | GATGGCAGTT | 1.01
58 | GATGGCCTT | 0.994
59 | GATGGGCTCC | 0.97
60 | GATGGTCTG | 1.04
61 | GATGTAGCAG | 1.01
62 | GATGTAGTCA | 0.973
63 | GATGTATTAG | 0.985
64 | GATGTCGCAA | 2.74
65 | GATGTGAGGT | 0.966
66 | GATGTGCCCG | 0.988
67 | GATGTGCTTT | 0.959
68 | GATGTGGGG | 0.963
69 | GATGTTTTGT | 1.01
70 | GATTAAACGA | 0.994
71 | GATTAAACGT | 1.1
72 | GATTAACCCT | 1.08
73 | GATTAATCGG | 0.981
74 | GATTACAGGC | 1.06
75 | GATTACGACG | 1.07

Row | Sequence | switch fluorescence ratio
76 | GATTAGAGTG | 0.986
77 | GATTAGGATG | 0.993
78 | GATTATCGA | 1.01
79 | GATTATCGGC | 1.09
80 | GATTATCGGG | 0.974
81 | GATTCATTGC | 0.99
82 | GATTCCCCCT | 1.1
83 | GATTCGCTGG | 1
84 | GATTCGGGTC | 0.953
85 | GATTCGTACT | 0.969
86 | GATTCGTCTT | 0.972
87 | GATTCTGGAG | 1.08
88 | GATTCTGTCA | 0.991
89 | GATTGAGTAC | 1.06
90 | GATTGCTAAT | 0.971
91 | GATTGGCGCT | 1.03
92 | GATTGGGTTA | 0.979
93 | GATTGGTGTA | 1.02
94 | GATTGTTCTA | 0.971
95 | GATTTAAAAG | 0.994
96 | GATTTAAGCC | 1.09
97 | GATTTACACT | 1.04
98 | GATTTATCG | 0.963
99 | GATTTATCGA | 1.01
100 | GATTTCGTTG | 0.993

Row | Sequence | switch fluorescence ratio
101 | GATTTCTTTG | 0.972
102 | GATTTGAGGT | 0.975
103 | GATTTGCATT | 0.999
104 | GATTTGCCTC | 0.996
105 | GATTTGGTTA | 1.01
106 | GATTTTATCC | 0.986
107 | GATTTTATCG | 1
108 | GATTTTCCCT | 1.05
109 | GATTTTGAAG | 1.02
110 | GCAAAAGCG | 0.992
111 | GCAAAAGGCT | 0.983
112 | GCAAAATCCC | 1.02
113 | GCAAAATGCT | 0.981
114 | GCAAACTGTG | 1.06
115 | GCAAACTTCT | 1.02
116 | GCAAATAGCC | 1.09
117 | GCAAATTTGG | 1
118 | GCAACAAGTC | 1.05
119 | GCAACATTAG | 1.04
120 | GCAACCAGGA | 1.14
121 | GCAACGAGTC | 1.04
122 | GCAACGCCTA | 0.972
123 | GCAACGGCAT | 1.03
124 | GCAACGTGCC | 1.02
125 | GCAAGACTCG | 3

Row | Sequence | switch fluorescence ratio
126 | GCAAGATTCG | 1.09
127 | GCAAGCACTA | 1.23
128 | GCAAGCCGTT | 1.08
129 | GCAAGTGACA | 1.06
130 | GCAAGTTCCT | 1.06
131 | GCAATAAAGG | 0.968
132 | GCAATATCGT | 1.41
133 | GCAATATTGG | 1.06
134 | GCAATCCTAT | 1.06
135 | GCAATCTCCC | 3.72
136 | GCAATGCGGC | 2.43
137 | GCAATGTGAG | 1.28
138 | GCAATTACGG | 2.19
139 | GCAATTAGAC | 1.72
140 | GCAATTAGAG | 1.07
141 | GCAATTGGCG | 0.982
142 | GCAATTTCCG | 1.23
143 | GCACACTCAC | 1.59
144 | GCACATAATG | 1.07
145 | GCACATGCAG | 0.967
146 | GCACGAAGAC | 4.51
147 | GCACGATAGG | 1.03
148 | GCACGCTACT | 1.74
149 | GCACGGCACA | 1.22
150 | GCACGGCTGT | 1.06

Row | Sequence | switch fluorescence ratio
151 | GCACGGGTGC | 1.05
152 | GCACGGGTTC | 1.12
153 | GCACGTTTAG | 1.01
154 | GCACTAAGCT | 1.04
155 | GCACTAGACG | 1.09
156 | GCACTTGGCT | 1
157 | GCACTTTTTT | 1.04
158 | GCAGAATGTT | 0.999
159 | GCAGAGAGAG | 0.983
160 | GCAGAGTTCG | 1.05
161 | GCAGATCTTA | 0.935
162 | GCAGATGGCC | 0.98
163 | GCAGCAACC | 3.36
164 | GCAGCAGGTT | 1.06
165 | GCAGCGAATC | 3.68
166 | GCAGCGCGCT | 0.972
167 | GCAGCTAGAG | 1.72
168 | GCAGCTGACG | 1.06
169 | GCAGGACAGG | 0.97
170 | GCAGGACATG | 0.995
171 | GCAGGAGAGG | 1.14
172 | GCAGGATTTG | 0.986
173 | GCAGGCCAGG | 1.23
174 | GCAGGCCCAG | 0.991
175 | GCAGGCCCGT | 1.03

Row | Sequence | switch fluorescence ratio
176 | GCAGGGAGTC | 1.01
177 | GCAGGGCGCG | 0.998
178 | GCAGGGTACA | 0.986
179 | GCAGGTACAG | 1.02
180 | GCAGTAAGGA | 1.02
181 | GCAGTAATAT | 3.1
182 | GCAGTAGATA | 0.983
183 | GCAGTATGGC | 0.959
184 | GCAGTGAGTC | 1.03
185 | GCAGTGTTAC | 1.27
186 | GCAGTTGGAG | 0.969
187 | GCAGTTTTGT | 0.961
188 | GCATAAACAA | 0.985
189 | GCATAAAGAT | 1.01
190 | GCATAAGAGC | 1
191 | GCATAAGGAG | 1.06
192 | GCATACACAG | 1.05
193 | GCATACTAAG | 1.07
194 | GCATATGACA | 0.942
195 | GCATCACCC | 1.13
196 | GCATCAGCTC | 1.02
197 | GCATCCCAAT | 1.87
198 | GCATCCGATT | 1.08
199 | GCATCTGCCC | 1.08
200 | GCATCTGGGC | 1.02
